In publication PMC2703783:
These are yes or no findings as the source states them, for the method shown. In cells and extracts the contact can be indirect. Some entries that bind do so weakly or less than the wild type. For some of these results: Tags and fused reporters may be left off the sequences shown.

Protein sequences, listed by entry. Tags and fused reporters are not part of them.
UniProt P37476: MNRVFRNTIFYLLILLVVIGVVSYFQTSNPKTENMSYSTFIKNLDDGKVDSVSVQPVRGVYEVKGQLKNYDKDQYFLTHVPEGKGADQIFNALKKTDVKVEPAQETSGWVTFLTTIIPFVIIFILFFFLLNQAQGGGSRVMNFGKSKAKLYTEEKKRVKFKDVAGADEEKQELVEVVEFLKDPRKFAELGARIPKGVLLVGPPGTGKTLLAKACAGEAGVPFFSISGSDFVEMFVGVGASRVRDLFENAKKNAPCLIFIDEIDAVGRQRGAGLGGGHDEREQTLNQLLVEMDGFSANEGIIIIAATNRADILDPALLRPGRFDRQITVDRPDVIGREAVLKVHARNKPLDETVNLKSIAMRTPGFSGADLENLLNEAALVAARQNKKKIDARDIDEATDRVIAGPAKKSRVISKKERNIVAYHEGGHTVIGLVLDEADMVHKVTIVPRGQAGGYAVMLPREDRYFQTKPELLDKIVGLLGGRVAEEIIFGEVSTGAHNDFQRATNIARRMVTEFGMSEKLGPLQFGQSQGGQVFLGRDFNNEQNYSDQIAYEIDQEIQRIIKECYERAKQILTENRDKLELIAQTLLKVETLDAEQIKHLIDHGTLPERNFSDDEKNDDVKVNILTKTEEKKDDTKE

T1: FLAG-tagged SpoIIIAH (Bacillus subtilis) (UniProt P49785)
T1 sequence: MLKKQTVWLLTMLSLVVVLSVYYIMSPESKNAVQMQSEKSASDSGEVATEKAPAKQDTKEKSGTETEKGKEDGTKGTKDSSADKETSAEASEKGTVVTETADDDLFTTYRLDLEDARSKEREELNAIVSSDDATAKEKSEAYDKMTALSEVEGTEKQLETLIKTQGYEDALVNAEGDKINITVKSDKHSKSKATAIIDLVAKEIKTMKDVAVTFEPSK

T2: SpoIIIAG (Bacillus subtilis (endogenous in sporulating B. subtilis cells)) (UniProt P49784)
T2 sequence: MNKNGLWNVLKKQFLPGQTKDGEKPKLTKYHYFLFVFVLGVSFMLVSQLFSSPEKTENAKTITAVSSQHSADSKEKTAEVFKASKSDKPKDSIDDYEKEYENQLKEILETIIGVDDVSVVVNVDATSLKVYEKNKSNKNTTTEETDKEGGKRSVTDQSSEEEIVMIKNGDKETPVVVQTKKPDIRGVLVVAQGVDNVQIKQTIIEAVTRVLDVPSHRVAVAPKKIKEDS

T3: myc-tagged SpoIIIAD fusion (Bacillus subtilis) (UniProt P49781)
T3 sequence: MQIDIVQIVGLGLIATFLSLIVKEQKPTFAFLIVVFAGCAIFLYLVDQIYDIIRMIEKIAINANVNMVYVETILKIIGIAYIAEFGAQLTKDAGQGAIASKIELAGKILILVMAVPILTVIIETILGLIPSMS

T4: SpoIIIAF (Bacillus subtilis (endogenous in sporulating B. subtilis cells)) (UniProt P49783)
T4 sequence: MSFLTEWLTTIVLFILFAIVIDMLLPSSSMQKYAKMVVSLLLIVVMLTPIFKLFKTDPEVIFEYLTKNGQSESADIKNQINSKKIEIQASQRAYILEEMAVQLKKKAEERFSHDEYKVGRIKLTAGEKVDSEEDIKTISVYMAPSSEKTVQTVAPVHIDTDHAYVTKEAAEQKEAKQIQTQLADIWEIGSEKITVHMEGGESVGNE

T5: SpoIIIAE (Bacillus subtilis (endogenous in sporulating B. subtilis cells)) (UniProt P49782)
T5 sequence: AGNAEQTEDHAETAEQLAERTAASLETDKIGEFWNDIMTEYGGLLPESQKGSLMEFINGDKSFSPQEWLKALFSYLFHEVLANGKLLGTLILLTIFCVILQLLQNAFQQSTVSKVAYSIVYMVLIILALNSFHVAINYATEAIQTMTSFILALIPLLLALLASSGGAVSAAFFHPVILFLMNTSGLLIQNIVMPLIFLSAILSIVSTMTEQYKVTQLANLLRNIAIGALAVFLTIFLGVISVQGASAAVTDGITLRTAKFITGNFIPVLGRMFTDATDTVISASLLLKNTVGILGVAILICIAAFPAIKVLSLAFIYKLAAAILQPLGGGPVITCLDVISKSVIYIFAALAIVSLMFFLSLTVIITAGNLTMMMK

T6: CFP-SpoIIQ fusion (Bacillus subtilis) (UniProt P71044)
T6 sequence: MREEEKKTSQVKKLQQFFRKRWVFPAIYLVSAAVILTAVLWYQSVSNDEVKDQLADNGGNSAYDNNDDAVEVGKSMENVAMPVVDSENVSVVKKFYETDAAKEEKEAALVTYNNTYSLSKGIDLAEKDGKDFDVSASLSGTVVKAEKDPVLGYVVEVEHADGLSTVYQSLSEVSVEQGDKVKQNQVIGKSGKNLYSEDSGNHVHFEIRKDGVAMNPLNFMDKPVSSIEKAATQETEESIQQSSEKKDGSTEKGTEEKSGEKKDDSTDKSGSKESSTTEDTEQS


What was measured:
[1] = biological target: T1, FLAG-tagged SpoIIIAH (Bacillus subtilis); test: co-IP; anti-FLAG M2-agarose; cleared lysates of protoplasts lysed in hypotonic buffer (50 mM Tris pH 7.5, 1 mM EDTA), without detergent; immunoblot
[2] = biological target: T2, SpoIIIAG (Bacillus subtilis (endogenous in sporulating B. subtilis cells)); test: co-IP; anti-SpoIIIAG, anti-SpoIIIAE or anti-SpoIIIAF antibody resin; membrane fraction of sporulating B. subtilis (hour 2.5) solubilized with 0.5% DDM; 4 h at 4°C; washed with Buffer S with 0.01% DDM; immunoblot
[3] = biological target: FLAG-tagged FtsH (Bacillus subtilis) (UniProt P37476); test: co-IP; anti-FLAG M2-agarose; cleared lysates of protoplasts lysed in hypotonic buffer (50 mM Tris pH 7.5, 1 mM EDTA), without detergent; immunoblot
[4] = biological target: T3, myc-tagged SpoIIIAD fusion (Bacillus subtilis); test: co-IP; data not shown: anti-Myc antibody resin, and blots for SpoIIIAA, SpoIIIAH and SpoIIQ in the immunoprecipitates from DDM-solubilized membranes
[5] = biological target: T4, SpoIIIAF (Bacillus subtilis (endogenous in sporulating B. subtilis cells)); test: co-IP; anti-SpoIIIAG, anti-SpoIIIAE or anti-SpoIIIAF antibody resin; membrane fraction of sporulating B. subtilis (hour 2.5) solubilized with 0.5% DDM; 4 h at 4°C; washed with Buffer S with 0.01% DDM; immunoblot
[6] = biological target: T5, SpoIIIAE (Bacillus subtilis (endogenous in sporulating B. subtilis cells)); test: as above
[7] = biological target: T6, CFP-SpoIIQ fusion (Bacillus subtilis); test: co-IP; data not shown: anti-GFP antibody resin, digitonin-solubilized membrane extracts, detection of SpoIIIAG
[8] = biological target: T6, CFP-SpoIIQ fusion (Bacillus subtilis); test: co-IP; anti-GFP antibody resin; membrane extracts of sporulating B. subtilis (hour 2.5) solubilized with the mild detergent digitonin; immunoblot

Row | Binder | binding [1] | binding [2] | binding [3] | binding [4] | binding [5] | binding [6] | binding [7] | binding [8]
1 | SpoIIIAE (protein, UniProt P49782 25-399) AGNAEQTEDHAETAEQLAERTAASLETDKIGEFWNDIMTEYGGLLPESQKGSLMEFINGDKSFSPQEWLKALFSYLFHEVLANGKLLGTLILLTIFCVILQLLQNAFQQSTVSKVAYSIVYMVLIILALNSFHVAINYATEAIQTMTSFILALIPLLLALLASSGGAVSAAFFHPVILFLMNTSGLLIQNIVMPLIFLSAILSIVSTMTEQYKVTQLANLLRNIAIGALAVFLTIFLGVISVQGASAAVTDGITLRTAKFITGNFIPVLGRMFTDATDTVISASLLLKNTVGILGVAILICIAAFPAIKVLSLAFIYKLAAAILQPLGGGPVITCLDVISKSVIYIFAALAIVSLMFFLSLTVIITAGNLTMMMK | – | binds | – | binds | binds | – | – | binds weakly
2 | SpoIIIAF (protein, UniProt P49783 1-206) MSFLTEWLTTIVLFILFAIVIDMLLPSSSMQKYAKMVVSLLLIVVMLTPIFKLFKTDPEVIFEYLTKNGQSESADIKNQINSKKIEIQASQRAYILEEMAVQLKKKAEERFSHDEYKVGRIKLTAGEKVDSEEDIKTISVYMAPSSEKTVQTVAPVHIDTDHAYVTKEAAEQKEAKQIQTQLADIWEIGSEKITVHMEGGESVGNE | – | binds | – | binds | – | binds | – | binds weakly
3 | SpoIID (protein, UniProt P07372 1-343) MKQFAITLSVLCALILLVPTLLVIPFQHNKEAGASVESEKTAVSTKPASKGAETLKASPVSIPVYRTANQSVENIPLEEYVIGVVASEMPATFKPEALKAQALAARTFIVRLMVSNSAVEAPKGSLVDDTQMFQVYKSKAELKKQWGTSYETKLKKITDAVASTQGKILTYNNQPIEASFFSTSNGYTENAEAYWTSAIPYLKSVKSPWDKKSPKYKATKTFTAAEFQQKLGVKLDGSSAVGKITGETPGHQVATAVINGKTLKGRDIREKLGLNSADFEWKRNGDTITVTTRGFGHGVGMSQYGANFMAKEGKTVDDIVKYYYQGTQISEADAFLNKYMAKK | – | no binding | – | – | no binding | no binding | – | –

Next, values leading:

Row | binding [1] | binding [2] | binding [3] | binding [4] | binding [5] | binding [6] | binding [7] | binding [8] | Binder
4 | binds | – | – | – | – | – | – | – | SpoIIQ (protein, UniProt P71044 1-283) MREEEKKTSQVKKLQQFFRKRWVFPAIYLVSAAVILTAVLWYQSVSNDEVKDQLADNGGNSAYDNNDDAVEVGKSMENVAMPVVDSENVSVVKKFYETDAAKEEKEAALVTYNNTYSLSKGIDLAEKDGKDFDVSASLSGTVVKAEKDPVLGYVVEVEHADGLSTVYQSLSEVSVEQGDKVKQNQVIGKSGKNLYSEDSGNHVHFEIRKDGVAMNPLNFMDKPVSSIEKAATQETEESIQQSSEKKDGSTEKGTEEKSGEKKDDSTDKSGSKESSTTEDTEQS
5 | – | binds | – | – | – | – | – | – | myc-tagged SpoIIIAD fusion (protein, UniProt P49781 1-133) MQIDIVQIVGLGLIATFLSLIVKEQKPTFAFLIVVFAGCAIFLYLVDQIYDIIRMIEKIAINANVNMVYVETILKIIGIAYIAEFGAQLTKDAGQGAIASKIELAGKILILVMAVPILTVIIETILGLIPSMS
6 | binds | – | no binding | binds | binds | binds | binds weakly | – | SpoIIIAG (protein, UniProt P49784 1-229) MNKNGLWNVLKKQFLPGQTKDGEKPKLTKYHYFLFVFVLGVSFMLVSQLFSSPEKTENAKTITAVSSQHSADSKEKTAEVFKASKSDKPKDSIDDYEKEYENQLKEILETIIGVDDVSVVVNVDATSLKVYEKNKSNKNTTTEETDKEGGKRSVTDQSSEEEIVMIKNGDKETPVVVQTKKPDIRGVLVVAQGVDNVQIKQTIIEAVTRVLDVPSHRVAVAPKKIKEDS
